The campaign covered roughly 270,000 compounds. About 620 (0.23%) were called active. This list was built around the results that the source calls inconclusive (neither active nor inactive); the mix of calls is not that of the screen. Calls follow the shape of the dose curve; as a rule, active = well fitted inhibition curve with a large enough effect in the polarisation, with a control signal flat (not every such curve was filed as active); inconclusive = small, poorly fitted or top-dose-only effect, or effect the other way, or a change in a side signal; inactive = no such curve, though single readings can be large or run the other way; the % refers to the polarisation. Potencies of inconclusive entries are doubtful fits and often do not repeat. “Side channel” marks fits to a control or component signal instead of the main read-out.
Each compound was assayed against Menin (Homo sapiens) (UniProt O00255) (assay: qHTS Assay for Inhibitors Targeting the Menin-MLL Interaction in MLL Related Leukemias: Competition With Texas Red Labeled MLL-derived Mutant Peptide). Details: fluorescence polarization; series mostly up to 61.6 µM.
UniProt O00255, sequence (O00255 whole entry, looked up): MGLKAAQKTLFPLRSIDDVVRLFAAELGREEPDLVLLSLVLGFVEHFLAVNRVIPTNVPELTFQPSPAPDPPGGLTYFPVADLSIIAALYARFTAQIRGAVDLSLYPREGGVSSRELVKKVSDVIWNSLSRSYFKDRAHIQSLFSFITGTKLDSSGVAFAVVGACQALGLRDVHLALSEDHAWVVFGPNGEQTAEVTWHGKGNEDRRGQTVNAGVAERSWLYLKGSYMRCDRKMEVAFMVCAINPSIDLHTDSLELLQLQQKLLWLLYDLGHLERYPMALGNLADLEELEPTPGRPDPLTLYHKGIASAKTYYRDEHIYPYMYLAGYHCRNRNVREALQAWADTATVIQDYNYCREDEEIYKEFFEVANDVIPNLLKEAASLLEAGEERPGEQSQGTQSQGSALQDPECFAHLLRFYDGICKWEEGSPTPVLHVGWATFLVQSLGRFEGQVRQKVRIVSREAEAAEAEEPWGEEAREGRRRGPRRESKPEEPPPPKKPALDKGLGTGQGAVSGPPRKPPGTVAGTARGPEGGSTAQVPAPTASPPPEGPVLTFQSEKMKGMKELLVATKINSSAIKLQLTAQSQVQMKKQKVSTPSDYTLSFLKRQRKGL
Potency is read from the fitted curve at half-maximal effect; tags tell the direction and shape of the fitted curve or compound fluorescence and quenching.

SMILES	Potency
[S-]C(=Nc1ccc(Cl)cc1)N[n+]1ccccc1	inactive
O=C1C(NS(=O)(=O)c2ccc(Br)cc2)=C(N2CCCCC2)C(=O)c2ccccc21	inconclusive: 39.8 µM [quencher, side channel, single point]
Cc1sc2ncnc(SCC(=O)N3CCCC(C(F)(F)F)C3)c2c1C (stereo not given)	inconclusive: 11.2 µM [fluorescent, side channel, partial curve]
COC(=O)c1oc2ccc(Br)cc2c1NC(=O)c1ccccc1	active: 28.2 µM
COc1ccc(OC)c(/C=C2\S/C(=N/NC(=O)c3ccc4ccccc4c3)NC2=O)c1	inconclusive: 28.2 µM [quencher, side channel, single point]
O=C(CNC(=O)c1ccccc1O)N/N=C/c1cc(Br)ccc1OC(=O)/C=C/c1ccco1	inconclusive: 12.6 µM [quencher, side channel, partial curve]
Cc1cccc(OCC(=O)Nc2ccc(NC(=O)c3ccco3)cc2)c1	inconclusive: 35.5 µM [fluorescent, side channel, single point]
CC(C)c1ccc(NC(=S)Nc2ccc3cn[nH]c3c2)cc1	inconclusive: 10 µM [inhibitor, full curve, poor fit]
COc1ccc(N2CCN(c3ccc(N4C(=O)COCC4=O)cc3[N+](=O)[O-])CC2)cc1	inactive
CCOc1ccc(-n2c(=S)sc3c(=O)n(-c4ccccc4)c(SC)nc32)cc1	inconclusive: 39.8 µM [inhibitor, partial curve]
O=C(Nc1ccc2c(c1)OCCO2)c1cc2sccc2n1Cc1ccccc1	inconclusive: 7.08 µM [quencher, side channel, partial curve]
CCOC(=O)Cc1csc(NC(=O)C(NC(=O)C2CCC(C)CC2)C(C)C)n1 (stereo not given)	inconclusive: 6.31 µM [inhibitor, partial curve]
CCC(C)C(NC(=O)C1CCC(C)CC1)C(=O)Nc1ccc(OC)cc1OC (stereo not given)	inconclusive: 28.2 µM [inhibitor, single point]
COc1cccc(OC)c1C(=O)Nc1ccc2c3c(cccc13)CC2	inconclusive: 2.82 µM [fluorescent, side channel, full curve, poor fit]
Cc1cccc(Cn2nc(C(C)(C)C)cc2C(=O)N2CCOCC2)c1	inconclusive: 28.2 µM [fluorescent, side channel, single point]
Cc1nc2ccc(-c3nc4ccc(N)cc4[nH]3)cc2[nH]1	inconclusive: 14.1 µM [quencher, side channel, partial curve]
c1csc(C2=Nn3c(nnc3-c3ccncc3)SC2)c1	inconclusive: 25.1 µM [quencher, side channel, single point]
N#C/C(C(=O)NCc1ccco1)=C1/SC(Cc2ccc(Cl)cc2)C(=O)N1c1ccccc1 (stereo not given)	inconclusive: 20 µM [quencher, side channel, single point]

SMILES	Potency
COc1cc(N=Nc2cccc(S(N)(=O)=O)c2)c2ccccc2c1N	inconclusive: 14.1 µM [quencher, side channel, partial curve]
COc1ccc2nc(-n3c(O)c(C4=c5ccccc5=NC4=O)[nH]c3=S)sc2c1	inconclusive: 31.6 µM [quencher, side channel, single point]
N#Cc1cccc(NC(=O)COC(=O)c2ccccc2Sc2ccccc2C#N)c1	inconclusive: 25.1 µM [quencher, side channel, partial curve, poor fit]
COc1ccc(-c2nc(-c3cccs3)c(-c3cccs3)[nH]2)cc1O	inconclusive: 28.2 µM [quencher, side channel, single point]
CCOc1cc(/C=N/N=C2/NC(=O)C(CC(=O)O)S2)ccc1OCc1ccccc1Cl (stereo not given)	inconclusive: 28.2 µM [quencher, side channel, partial curve]
Cc1cnc(C)c(N2CCN(Cc3nc(-c4ccccc4)no3)CC2)n1	inconclusive: 31.6 µM [fluorescent, side channel, single point]
CCOC(=O)C1Nc2ccc(C(=O)O)cc2C2C=CCC12 (stereo not given)	inconclusive: 11.2 µM [quencher, side channel, partial curve]
Nc1nc(CSc2n[nH]c(-c3ccccc3)n2)nc(Nc2ccccc2)n1	inconclusive: 3.98 µM [quencher, side channel, partial curve, poor fit]
CCC(=O)N(CCc1ccccc1C)Cc1cc2cc3c(cc2[nH]c1=O)OCO3	inconclusive: 3.16 µM [inhibitor, full curve]
COc1ccccc1/C=C1/SC(=O)N(CCC(=O)Nc2ccc(S(=O)(=O)Nc3nccs3)cc2)C1=O	inconclusive: 39.8 µM [inhibitor, single point]
COc1ccc(NC(=O)CN(C2CCCCC2)S(C)(=O)=O)cc1OC	inactive
O=C(O)C1CCCCC1C(=O)Nc1ccccc1F (stereo not given)	inconclusive: 17.8 µM [inhibitor, partial curve, poor fit]
O=C(NNC(=O)c1oc2ccccc2c1-n1cccc1)c1ccco1	inconclusive: 15.8 µM [quencher, side channel, partial curve]
CCOc1ccc(-n2c(C)c(C(=O)O)c3cc(OC)ccc32)cc1	inconclusive: 0.708 µM [quencher, side channel, full curve, poor fit]
CCOc1cc(/C=C2\C(=O)N(c3nc(-c4ccc(Br)cc4)cs3)N=C2c2ccccc2)ccc1O	inconclusive: 2.51 µM [quencher, side channel, full curve, poor fit]
Cc1cccc(N2CCN(CC(O)COCc3cccs3)CC2)c1C (stereo not given)	inconclusive: 12.6 µM [fluorescent, side channel, partial curve]
O=C1/C(=C\c2ccc(O)c(O)c2)SC(=S)N1Cc1ccccc1	inconclusive: 31.6 µM [fluorescent, side channel, partial curve]
